The supplement of paper PMC3334620
Over roughly 33,000 sequences, “E-score (-0.5 to 0.5)” has its median near -0.013; the highest 2% begin near 0.3. Some of the results follow.

Each sequence was assayed against T1, Msn1 (UniProt P22148) (assay: PBM E-score (8-mer binding enrichment) (E-score (-0.5 to 0.5)); higher = stronger / more preferred TF binding; most listed sequences are background and not binding sites). Conditions: protein concentration: 200 nM; construct: GST-full length.
T1 sequence: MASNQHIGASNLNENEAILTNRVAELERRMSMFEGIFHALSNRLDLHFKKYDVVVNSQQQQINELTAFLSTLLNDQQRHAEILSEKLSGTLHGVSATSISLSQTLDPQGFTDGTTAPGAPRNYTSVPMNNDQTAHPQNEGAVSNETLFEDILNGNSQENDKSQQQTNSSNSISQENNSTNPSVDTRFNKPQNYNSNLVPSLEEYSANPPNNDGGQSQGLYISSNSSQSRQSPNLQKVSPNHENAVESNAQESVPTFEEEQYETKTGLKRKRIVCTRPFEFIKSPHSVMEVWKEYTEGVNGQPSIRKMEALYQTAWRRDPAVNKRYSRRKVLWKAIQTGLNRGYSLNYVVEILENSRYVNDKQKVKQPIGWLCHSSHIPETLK
Method in brief: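 The E-score, a modified Wilcoxon-Mann-Whitney statistic, was computed by the Universal PBM Analysis Suite for every ungapped eight-base word pooled with its reverse complement. Scans behind it were normalised with masliner after bound GST-tagged yeast transcription factors were detected with fluorescent anti-GST. The proteins, at about 100-200 nM, had been applied to universal all-10-mer Agilent arrays made double-stranded by primer extension.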

Sequence	PBM E-score
CCCTAACC	-0.243
ACTGCAAA	0.0756
TATGCTGA	0.105
TGCGAGAA	-0.167
CCTACTAA	0.0386
CGAGCCCG	-0.0803
ACTTATCG	0.165
CCGGTTCC	-0.103
ATACCAAG	-0.0141
ACCACTCT	-0.118
ACGTCGAC	0.118
CAACATTA	0.00611
AGACTCGG	-0.17
ACTCCTAC	-0.224
GCATAAGC	0.101
CTGCCCAC	-0.138
CCCAGAGA	-0.0772
AATATACC	0.148
ACCATACC	-0.238
CATGTGTC	0.298
AAAAGTTT	0.0561
ACGAGGAG	-0.0753
AAGTGGGC	-0.0116
CGACCTCA	-0.14
CCCTACGA	-0.12

Sequence	PBM E-score
ATGAACCA	0.0621
ATCAGCAT	0.178
CAGAGTAG	-0.129
ATGACATG	0.361
ACAGGCGG	-0.0513
AGGTACGG	-0.142
CGCTGATA	-0.0744
ACGGCTGG	-0.3
GCTTGGCA	-0.022
TAAATATA	0.207
ACTGGCCT	-0.11
GACAGTCC	-0.0448
ACGACAAG	0.0652
AAAGTGAC	-0.0883
CCTAGTCA	-0.114
CTTCGAGA	0.0311
GTCAAAAA	0.128
GTCAGCTA	-0.194
GTATGGCA	0.00486
CAGTATCA	0.00611
ATGCCACG	-0.243
CACACAAA	0.115
GTGCGCGA	-0.106
CAGTTCAC	-0.0495
AGAGGCAC	-0.207

Sequence	PBM E-score
ATATTGTG	-0.00984
ATTAACAG	0.0865
TTAGAAAA	0.109
ACTTTTCG	0.256
CTGAGCTA	-0.193
TAACTGAA	-0.0416
GCAGTGCA	-0.19
ACCACGGA	-0.192
CACTTGTA	0.157
CCGGACCA	0.0137
ACAAGCCC	-0.149
ACTTGCGA	0.177
AAGTATAT	0.209
ATGGCGTC	-0.103
AAACGTGC	-0.178
CGAATTAA	0.0787
AGCTTCCG	-0.0235
CCATGTCG	0.239
CCCATAAC	-0.0254
AGTTTATA	0.235
ATCAGTAG	-4e-05
ATCCGACC	-0.00924
AGGTAAAG	0.122
AATTACTG	-0.0343
ACTGCGCA	0.162

Sequence	PBM E-score
CATGGACC	-0.0789
ACAGTTGA	0.0741
ACCCCATC	-0.269
CGCTAACA	0.00832
ACATATGC	-0.0219
CGAGTATA	0.139
TCTTGCAA	0.0285
ATATTTTA	0.225
CCCAGGGA	-0.24
TGGAGTAA	-0.0366
CGAAATCC	-0.0159
AACAGCCT	-0.0797
ATCCTGAC	0.0473
GCCACCGA	-0.211
AGACCGAC	0.0898
ACGTTATC	-0.112
AGCACTGA	0.00326
GCTTGTCC	0.454
ACCAGCCT	-0.239
CCAGCGAG	-0.225
CCCGCTTC	-0.225
ATCAATTC	-0.026
GTTAAAAA	0.175
CTTGGAAA	0.024
CACCGGGC	-0.172

Sequence	PBM E-score
AACCCACT	0.0682
GGGGGTGA	-0.354
AGGAGGAT	-0.174
AAGCCTAC	-0.0603
TGTCCAAA	0.473
AAGACCTT	0.00647
GTGTCCGA	0.37
ATTCCGTC	0.0422
GTTGCGCA	-0.0202
AGCAAGCG	-0.0466
CCTTGGAC	0.185
GGGGACAC	0.28
CTTAGTGC	0.111
CCATGTCA	0.164
GGCAGCCC	-0.3
GAAGGCAC	-0.0435
CCTGAACC	-0.0625
GTATACAC	-0.00867
ACAGGCAT	-0.0412
AGGATCGA	-0.0232
AGCCGGAG	0.0715
ATCCTTTC	-0.0316
GGCCTAAA	-0.0755
ACTGTCGA	-0.106
GACGTCGA	0.0985

Sequence	PBM E-score
ACAGACAG	0.222
ACCAGTGG	-0.23
GGCGGGGA	0.0388
ACAGTGGT	-0.123
CCGATCTA	-0.00864
CGAAACGC	-0.00657
GAATGCCA	-0.0809
AGTAGCGG	-0.0435
CGGTTACC	-0.195
GCGTCAAA	0.0868
ACACGCGT	0.21
AGTTGCTC	-0.154
ATATTAAG	0.234
GCAACGCC	-0.0816
AAATGACC	0.0678
AAAACTTT	-0.0847
CACTGGTC	-0.0999
AACGGCCA	0.0469
CACAGCCA	-0.168
AGCTGGGA	0.0709
GAGTACCC	-0.232
CGCCCAGC	-0.219
AGGCCGTC	-0.229
AGCCATCC	-0.277
CTGAACAC	0.0459

Sequence	PBM E-score
GCGTAGGA	-0.253
AGGTATAG	-0.0758
CTACCTGC	-0.0941
CACGACCA	-0.00647
ATCCGAGA	0.187
CCGCTTAC	-0.0448
GAACATGA	-0.0143
CGAAATTA	0.138
CATCCCGG	0.0319
ACCTGTAG	-0.0898
ACAAGAAG	0.029
ATAAGAGG	-0.168
GTGGCAGA	-0.184
ATGTGCCG	0.113
CCGGCACC	0.0454
CACGCGCG	-0.0825
CTTATGCC	-0.0711
GCAAGGGC	-0.289
ATCGATTG	0.219
AACGCCAG	-0.0958
CATGCCTA	-0.203
CCCTCGCC	-0.294
TTGCCAAA	-0.0227
TACAAACA	0.301
AACCCTGA	0.188

Sequence	PBM E-score
ACGACTGC	-0.178
AAACTCAC	-0.147
CGCCAAAG	-0.126
ATAGATTG	0.082
GAGCCACA	-0.142
CTGTGCTA	-0.125
GCCTTGTA	0.0896
CTATCGCA	-0.201
CGTAGGTA	-0.0556
CCCAATCA	-0.0875
ATGTGACA	0.305
CAAGTGCG	-0.14
GGGTCGAA	-0.195
ATACCGGA	0.0703
CGCAGAAG	-0.0692
AGATCTCC	-0.134
AGGCCGGG	-0.207
ATTGATCC	-0.035
TAACGTTA	0.11
TCGCGCGA	0.0603
AGAACTAG	0.0709
CGAATACC	-0.104
AGATCCAA	-0.0896
ATTCTCAC	-0.00883
GTACAGGA	0.184

Sequence	PBM E-score
ACGCCGTG	-0.0634
ACTGTAAT	0.0722
ATCTACTC	-0.035
CTAGAGCA	-0.096
GCTATGCA	-0.0988
AGTGGAGG	-0.193
ACATGCGG	0.166
ATCGGAGG	0.0379
AGAGACGC	0.0491
CGGTTGAA	0.109
CGGTCCAC	-0.0766
AAGAGCCG	-0.115
GGGCACGA	-0.0856
GCCCCGGC	-0.209
AGCTACTA	0.0706
CACTTGAC	0.00207
GACTTATC	0.166
TAGAATGA	0.0016
GTACTACA	0.179
ACTTTTTG	0.248
ACCAGTCC	-0.232
CATGTTAA	0.163
ATTAGGCC	0.117
ATCCCGAG	0.0254
GAGGAATA	0.0988

Sequence	PBM E-score
GGGCGACA	-0.119
AATCATCG	-0.0148
GCCGCGAC	-0.0504
AGGCCGGA	-0.098
GATACACC	0.106
ACGAACGT	0.00507
CATAGACG	0.194
CGGAAACA	-0.0558
GAAGTCTC	-0.0243
CAATAATC	0.0799
AAAGGAGG	-0.303
CGAGGGCC	0.0261
ATGATCAT	0.118
CGTAAACC	-0.0451
TGAGGTAA	-0.0205
ATGGGGTC	-0.256
CTTCTTTC	-0.0964
GCGCGAGA	0.0574
CGTCAAGA	-0.102
TAGACCTA	0.00091
GCTTAAGC	-0.102
CTCGGATA	0.157
TAATATTA	0.24
ATCGCAAT	0.105
CCTCTCGC	-0.165

Sequence	PBM E-score
CGGCGCAA	-0.00261
CCACATAA	0.0595
ACGTCACT	0.109
GATTTGGC	-0.221
CTCACTTC	-0.212
AGCATAGA	0.00863
ATGCCCGA	-0.0335
CCCATTTA	-0.0541
CACAAGCC	-0.139
CGACGATC	0.108
AACAGTGT	-0.0192
AGCCACAT	-0.105
CGCGACAA	0.304
GATCCTAA	-0.0896
ATCTTTGG	-0.0763
CCAGAGGG	-0.325
ATTCGAGG	0.0494
CTCAACAA	0.113
GAATCGTC	-0.0709
CGGTTGGC	0.00858
CTTGGTAA	0.00661
GGCAGAAC	-0.167
ATATTACA	0.157
AGTCTAGC	-0.184
GACATCCC	0.374

Sequence	PBM E-score
AATATAAA	0.241
GCGCTTGA	0.00998
ACTGAAGG	-0.0529
AAACCTGA	-0.178
CAGTGCAG	-0.109
CGTAGCCA	-0.162
ACGCACGC	0.247
CTAGGTGA	-0.05
AGCCACGG	-0.217
AACCATGG	0.0443
ATGGTAAT	0.04
AGATCGTA	-0.0221
ATGTACAT	0.324
TTGGACAA	0.47
CGTACCAG	-0.0966
AGCCGTCA	-0.0555
AGAGAGAT	-0.0186
CCGCTTCA	-0.0885
ATGGGTTA	0.0384
GGCCCGAA	0.077
GGTCCAAA	-0.0431
ATTTTAGA	0.125
AGACCCAC	0.0147
CAGACTTC	0.0133
AGCACGCC	-0.104

Sequence	PBM E-score
AGGAGGTA	-0.102
GCAGACAA	0.341
CCGACTGC	-0.00611
ATCTGCAA	-0.201
ACTCAGCT	0.0191
AGGAACGA	-0.203
ACTCTCGC	-0.0812
ACCGCGCT	-0.0147
ACTGCGGA	0.00583
CGCGAAGA	-0.0312
CCACGAGC	0.00807
ACTTTTAA	0.212
AGTTTCCC	-0.107
GATCGGGC	-0.0953
AGATATGG	0.102
CCTGTAAA	-0.157
CCCTGAAA	-0.0556
AAAGCCAA	-0.0502
ACGCGCGC	0.196
AAACCCCA	-0.0373
CTATCAGA	-0.128
CTGTGGTC	0.0127
AGCATTAA	0.08
ACGACCAG	-0.0844
TGTATTAA	0.192

Sequence	PBM E-score
ACCTCTAA	-0.00054
AGGCTGGG	-0.258
AATACATG	0.0057
CGATATTC	0.0347
CTGTGATA	-0.0746
ATCCGAAT	0.309
CGAAACTC	-0.201
ATAGACTG	0.0474
AGCAGGAA	0.0466
CCGGAACG	0.0578
AAGGATCT	-0.108
GGCGGTTA	-0.127
GCTCGTAC	-0.046
ACCGATTC	-0.0811
GCAAGAGA	-0.0797
AGTCAGGC	0.0431
GAATCATC	-0.11
CATCTGAA	0.00381
CGTCGTCA	-0.0897
